Assay results: PubChem BioAssay AID588855 (National Center for Advancing Translational Sciences (NCATS), 2011)
Screen size: about 410,000 compounds; about 5,000 (1.2%) were called active. The shares of active, inactive and inconclusive entries below differ from those in the screen. Calls come from the whole dose curve; as a rule, active = well fitted inhibition curve with a large enough effect; inconclusive = small, poorly fitted or top-dose-only effect; inactive = no such curve, though single readings can be large or run the other way. Where the call is inconclusive, the potency comes from a doubtful curve fit.

assay: qHTS for Inhibitors of TGF-b; details: HepG2 CAGA-GFP TGF-b/SMAD3 reporter, GFP fluorescence, 18 h, TGF-beta stimulated, 500 pg/mL final; series mostly up to 46.1 µM; activity, negative = inhibition: at the top concentration; note: nearly all actives have a fitted effect of over 65% in size
In short: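 Per well, imaged GFP fluorescence of HEPG2 CAGA-GFP cells gives the signal; cells get compound, then TGF-beta (500 pg/mL final), 18 h at 37 degrees C; %Activity versus -TGF-beta and +DMSO controls.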
% is set by controls: 0 for no effect and ±100 for the full control effect; potency is the fitted concentration of half-maximal effect; tags give direction and shape of the fitted curve.

Row | Structure (SMILES) | Potency | activity, negative = inhibition
1 | Nc1cccc(C(=O)Nc2ccco2)c1 | inconclusive: 3.16 µM [inhibitor, single point] | –
2 | CCOCCCNC(=O)C(c1ccccc1)N(Cc1cccs1)C(=O)c1ccc(NC(C)=O)cc1 (stereo not given) | inconclusive: 5.01 µM [inhibitor, partial curve] | –
3 | COc1ccc(N2CCN(C(=O)c3c(C)oc4ncnc(N5CCCCC5)c34)CC2)cc1 | inconclusive: 4.47 µM [inhibitor, partial curve, poor fit] | –
4 | Cc1cccc(N2CCN(C(=O)C3CCCN(S(=O)(=O)c4cccc5nsnc45)C3)CC2)c1C (stereo not given) | – | inactive: -25.5%
5 | CCNC(=O)C1CCCN(C(=O)c2ccco2)CC1 (stereo not given) | inconclusive: 28.2 µM [inhibitor, single point] | –
6 | O=C(Nc1ccccc1N1CCOCC1)c1ccccc1NS(=O)(=O)c1ccc(F)c(F)c1 | inconclusive: 8.91 µM [inhibitor, partial curve, poor fit] | –
7 | COc1cc(NC(=O)Cn2cnc(S(=O)(=O)N3CCc4ccccc43)c2)cc(OC)c1OC | – | inactive: 4.3%
8 | O=C(CC(=O)N/N=C\c1cccc(Cl)c1Cl)NCc1ccccc1 | inconclusive: 10 µM [inhibitor, partial curve, poor fit] | –
9 | CCN(CC)c1ccc(/C=N/Nc2nc(C)cc(C)n2)cc1 | inconclusive: 6.31 µM [inhibitor, single point] | –
10 | CC1(C)CC(=O)C2=C(C1)OC1=C(C(=O)CC(C)(C)C1)C2c1ccc(O)cc1O | active: 7.08 µM | –
11 | O=C(O)Cc1ccc(O)cc1 | inconclusive: 2.82 µM [inhibitor, partial curve, poor fit] | –
12 | CN(Cc1ccccc1)C(=O)c1cccc(NC(=O)Cc2ccc(NC(=O)C3CCCN(C(=O)C4CCCCC4)C3)cc2)c1 (stereo not given) | inconclusive: 31.6 µM [inhibitor, single point] | –
13 | CSc1nc(NCCN(C)C)c2sc3nc(-c4ccco4)c4c(c3c2n1)CCC4 | inconclusive: 17.8 µM [inhibitor, single point] | –
14 | CC1CCc2sc3c(c2C1)c(=O)n(CC(=O)O)c(=O)n3Cc1ccc(Cl)cc1 (stereo not given) | inconclusive: 15.8 µM [inhibitor, single point] | –
15 | C[C@@H](C(=O)Nc1cccnc1)n1c(=O)[nH]c2ccccc2c1=O | – | inactive: 14.7%
16 | Cc1cccc(N2CCN(C(=O)C(Cc3ccccc3)n3cccc3)CC2)c1C (stereo not given) | inconclusive: 35.5 µM [inhibitor, single point] | –
17 | COC(C/C=C/[C@@H](O)COCc1ccccc1)OC | inconclusive: 35.5 µM [inhibitor, single point] | –
18 | Cc1cccc(N(C)C(=O)CN2C(=O)COc3ccc(S(=O)(=O)N4CCCCCC4)cc32)c1 | inconclusive: 22.4 µM [inhibitor, single point] | –
19 | CSCc1c(C(=O)OCC(=O)NC2CCCCC2)oc2ccccc12 | – | inactive: -22.4%
20 | Cc1ccc(S(=O)(=O)Nc2cccc3c2O[C@H](CN(C)C(=O)Nc2cccc4ccccc24)[C@H](C)CN([C@H](C)CO)C3=O)cc1 | inconclusive: 14.1 µM [inhibitor, single point] | –

Row | Structure (SMILES) | Potency | activity, negative = inhibition
21 | CC(NC(=O)Cc1ccc(Br)cc1)c1ccccc1 (stereo not given) | inconclusive: 35.5 µM [inhibitor, single point] | –
22 | COc1cc2c(=O)c(S(=O)(=O)c3ccc(F)cc3)cn(Cc3ccccc3C)c2cc1OC | inconclusive: 0.794 µM [inhibitor, full curve, poor fit] | –
23 | CCC(C)(CCNC(=O)Cc1ccccc1)c1ccccc1OC (stereo not given) | – | inactive: -7.22%
24 | Cc1ccc(-n2cc(-c3ccccc3)c3c(NC4CCCC4)ncnc32)cc1 | inconclusive: 12.6 µM [inhibitor, single point] | –
25 | COc1ccc(NC(=S)Nc2ccc3c(c2)c(=O)n(C)n3-c2ccccc2)cc1 | – | inactive: 34.1%
26 | O=S(=O)(c1ccc(Br)cc1)c1nc(-c2ccccc2)oc1NCc1cccnc1 | inconclusive: 28.2 µM [inhibitor, single point] | –
27 | CCOC(=O)N1CCN(C(=O)C2CCN(C(=O)c3ccccc3C)CC2)CC1 | inconclusive: 11.2 µM [inhibitor, partial curve, poor fit] | –
28 | CC1(C)Cc2cccc(Oc3ccc(S(=O)(=O)N4CCCC4)cn3)c2O1 | inconclusive: 1.41 µM [inhibitor, partial curve, poor fit] | –
29 | COc1cccc(CNCCNC(=O)c2ccco2)c1OC | inconclusive: 15.8 µM [inhibitor, single point] | –
30 | CCCCCCC1(C)NC(c2ccc3c(c2)OCO3)=CC(c2cc(Br)ccc2O)N1 (stereo not given) | inconclusive: 35.5 µM [inhibitor, single point] | –
31 | Cc1cc(C)n(-c2ccc(C(=O)Nc3cc(C(F)(F)F)ccc3N3CCOCC3)cc2)n1 | inconclusive: 6.31 µM [inhibitor, partial curve, poor fit] | –
32 | CC(C)(O)C(=O)NNC(=S)Nc1cccc(C(F)(F)F)c1 | – | inactive: 5.57%
33 | COc1ccc(NS(=O)(=O)c2ccc(-n3nnc4ccccc43)c([N+](=O)[O-])c2)cc1 | inconclusive: 31.6 µM [inhibitor, single point] | –
34 | Cn1c(=O)c(C(=O)NNC(=O)c2ccc(Br)cc2)c(O)c2ccccc21 | active: 7.08 µM | –
35 | CCOC(=O)C1=C[C@@H](C(C)(C)C)N(S(=O)(=O)c2ccc(C)cc2)[C@H]1c1cccc(Cl)c1 | inconclusive: 12.6 µM [inhibitor, partial curve, poor fit] | –
36 | CCC(C(=O)Nc1ccc(C(=O)OC)cc1)n1nc(-c2ccc(C)cc2)c2c(c1=O)CCCC2 (stereo not given) | inconclusive: 15.8 µM [inhibitor, single point] | –
37 | COCCNC(=O)CSc1cc(-c2ccccc2)c2ccc(OC)cc2n1 | inconclusive: 20 µM [inhibitor, single point] | –
38 | Cc1cc(C)c2c(CC(=O)Nc3ccc(S(=O)(=O)N4CCCC(C)C4)cc3)coc2c1 (stereo not given) | inconclusive: 10 µM [inhibitor, partial curve] | –
39 | COC(=O)c1c(C)oc(C)c1S(=O)(=O)N(C)C1CCCCC1 | – | inactive: -2.02%
40 | CN(C)C(=O)CNc1ccn2nc(-c3cccc(OCCN4CCOCC4)c3)cc2n1 | – | inactive: 3.78%
